Reference: article PMC4336329 (PLoS ONE, 2015)
The whole screen tested about 310,000 compounds, of which about 14,000 (4.5%) showed an effect of 50% or more. The effect is printed as a negative number. This is one part of the list.

target: human ether-à-go-go-related gene (hERG) potassium channel (human, UniProt Q12809); assay: primary screen, population patch clamp on CHO cells stably expressing hERG
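Note: peak tail current of the secondary pulse compared with the same well before compound.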

Sequence of human ether-à-go-go-related gene (hERG) potassium channel (Q12809 whole entry, looked up): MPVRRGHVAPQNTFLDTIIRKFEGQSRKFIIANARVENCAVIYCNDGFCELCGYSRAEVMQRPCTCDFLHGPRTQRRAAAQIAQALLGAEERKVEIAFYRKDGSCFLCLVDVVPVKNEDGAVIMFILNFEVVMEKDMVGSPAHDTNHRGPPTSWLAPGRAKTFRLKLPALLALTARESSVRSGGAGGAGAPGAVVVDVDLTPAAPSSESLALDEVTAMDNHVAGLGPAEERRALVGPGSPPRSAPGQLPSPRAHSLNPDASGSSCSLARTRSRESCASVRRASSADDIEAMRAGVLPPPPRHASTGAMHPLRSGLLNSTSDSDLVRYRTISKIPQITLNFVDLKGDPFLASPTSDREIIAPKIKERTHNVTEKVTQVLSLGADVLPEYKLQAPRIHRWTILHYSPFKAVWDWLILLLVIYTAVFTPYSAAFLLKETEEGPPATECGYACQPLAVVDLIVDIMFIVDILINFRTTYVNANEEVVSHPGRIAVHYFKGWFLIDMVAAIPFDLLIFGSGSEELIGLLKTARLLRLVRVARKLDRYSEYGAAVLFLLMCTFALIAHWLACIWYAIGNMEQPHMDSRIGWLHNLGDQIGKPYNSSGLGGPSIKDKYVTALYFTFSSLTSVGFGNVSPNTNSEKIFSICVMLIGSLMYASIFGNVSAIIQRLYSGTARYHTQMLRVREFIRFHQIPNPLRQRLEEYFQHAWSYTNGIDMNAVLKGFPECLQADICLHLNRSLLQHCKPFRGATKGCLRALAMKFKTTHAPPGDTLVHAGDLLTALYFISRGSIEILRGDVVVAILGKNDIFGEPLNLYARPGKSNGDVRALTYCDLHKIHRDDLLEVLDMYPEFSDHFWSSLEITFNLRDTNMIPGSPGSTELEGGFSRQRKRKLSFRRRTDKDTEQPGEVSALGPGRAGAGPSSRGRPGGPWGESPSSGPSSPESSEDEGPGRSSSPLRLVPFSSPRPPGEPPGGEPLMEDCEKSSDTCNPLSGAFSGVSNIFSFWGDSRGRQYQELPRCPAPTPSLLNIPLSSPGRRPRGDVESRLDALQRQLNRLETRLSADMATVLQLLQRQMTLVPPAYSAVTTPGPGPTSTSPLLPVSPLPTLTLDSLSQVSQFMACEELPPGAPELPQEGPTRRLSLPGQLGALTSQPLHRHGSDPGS

Row | Structure (SMILES) | hERG current change (%, negative = inhibition) at 10uM
1 | Cc1nc2cc(NC(=O)N3CCCCC3)ccc2n1C | 4.54%
2 | CN1CCN(C(=O)CSc2nc(-c3cccs3)cc(-c3cccs3)c2C#N)CC1 | -17.4%
3 | COc1cc(Nc2cccc[n+]2C)cc(OC)c1OC.[I-] | 15.6%
4 | CC(=O)c1ccc(N2CCN(C(=O)c3nn(Cc4ccccc4)c(=O)c4ccccc34)CC2)cc1 | -75.1%
5 | CN1C(=O)c2ccc(C(=O)NCc3ccccn3)cc2C1=O | 8.06%
6 | Cc1ccc(C(=O)NC(C)c2ccc(-n3ccnc3)cc2)o1 (centres unmarked) | -37.4%
7 | CC1(C)Cc2c(C#N)c(N)sc(=S)c2CO1 | -0.142%
8 | Cn1c(SCC(=O)Nc2nccs2)nnc1-c1cccnc1 | 2.16%
9 | O=C(COC(=O)c1ccc(Cl)nc1)Nc1ccc2c(c1)OCCO2 | 11.7%
10 | CCN(CC)CCCNC(=O)c1cc(Cl)c(NC(=O)C2=C(C)OCCS2)cc1OC | -61.5%
11 | O=C(N/C=C/c1ccco1)OCc1ccccc1 | 15.6%
12 | O=C(NCCCN1CCCC1=O)c1cncc(Br)c1 | 6.26%
13 | COc1ccc([N+](=O)[O-])cc1NCc1ccco1 | -9.03%
14 | O=S(=O)(N/N=C/c1cccnc1)c1ccc(Cl)c(Cl)c1 | 6.1%
15 | Cc1ccnc(NC(=O)C2CCN(S(=O)(=O)c3cccc4nonc34)CC2)c1 | -19%
16 | CCOC(=O)C1=C(CC)Nc2ccccc2N=C1NC(=O)Cn1cnc2ccccc2c1=O | 5.84%
17 | O=C(c1cccc(S(=O)(=O)Nc2ccccc2Cl)c1)N1CCCCCC1 | -23.3%
18 | COc1cc(C(=O)NCC(=O)N2CCN(S(=O)(=O)c3ccccc3)CC2)cc(OC)c1OC | 15.9%
19 | O=C(O)c1ccc(N2C(=O)C3ON(c4ccccc4)C(c4ccccc4F)C3C2=O)cc1 (centres unmarked) | 17.7%
20 | O=C(CCC(=O)Nc1ccc(F)cc1)N/N=C/c1cc([N+](=O)[O-])ccc1O | 7.83%
21 | CC(C)CC(=O)NC(=S)N1CCN(c2ccc([N+](=O)[O-])cc2Cl)CC1 | -30.9%
22 | Cc1ccc(C)c(CSc2nc3[nH]ncc3c(=O)[nH]2)c1 | 0.0505%

Row | Structure (SMILES) | hERG current change (%, negative = inhibition) at 10uM
23 | CCOc1cc(OCC)cc(C(=O)NCc2ccco2)c1 | -3%
24 | C=C(C)CN(CC)c1nc(N)c(C#N)c(CC#N)c1C#N | -17.8%
25 | COC(=O)c1ccccc1NC(=O)c1cccc(COc2ccccc2Cl)c1 | 10.6%
26 | Oc1c(Cl)cc(Cl)cc1Sc1cc(Cl)cc(Cl)c1O | 20.8%
27 | CCCCN(CCCC)CC(O)COc1ccccc1Br.Cl (centres unmarked) | -40.6%
28 | NC(=O)CSc1nnc(-c2ccncc2)n1CCc1ccccc1 | 11.2%
29 | O=C(CSc1nc2ccsc2c(=O)n1CC1CCC(C(=O)O)CC1)NCCc1ccc(Cl)cc1 (centres unmarked) | -3.86%
30 | COc1ccc(CNC(=O)[C@H](C)N2C(=O)N3CCc4c([nH]c5ccc(OC)cc45)[C@@]3(C)C2=O)cc1 | 9.36%
31 | CCCCNc1ncnc2sc3c(c12)CCN(CCC)C3 | -76%
32 | CCc1ccc(N(C2C=CS(=O)(=O)C2)S(=O)(=O)c2ccccc2)cc1 (centres unmarked) | 3.99%
33 | CSCCC(NC(=O)c1ccco1)C(=O)OCC(=O)N1c2ccccc2NC(=O)C1(C)C (centres unmarked) | -7.21%
34 | CCOc1cc(NS(=O)(=O)c2ccc(OC)cc2)c(OCC)cc1NC(=O)c1ccco1 | -13.9%
35 | Cc1cc(CNC(=O)CC2C(=O)NCCN2CC(C)(C)C)nn1C (centres unmarked) | 14.2%
36 | Cc1cccc(NC(=O)c2cccc(C(=O)Nc3cccc(C)c3)c2)c1 | 22.9%
37 | CCN(CC(=O)NCC1CCCO1)S(=O)(=O)c1ccc2ccccc2c1 (centres unmarked) | 11.9%
38 | COc1ccc(CNC(=O)CNS(=O)(=O)c2cccs2)cc1 | 13.2%
39 | CCOC(=O)C1(c2ccccc2)CCN(CCC(=O)Nc2ccc(F)cc2)CC1 | -36.1%
40 | CNC(=O)c1ccc(-c2ccccc2)s1 | 5.46%
41 | O=C(NCc1ccccc1Cl)C1CCN(S(=O)(=O)c2ccc(N3CCCC3=O)cc2)CC1 | 15.7%
42 | CCOC(=O)CN(C(=O)Cn1nnc(-c2ccc(OC)cc2)n1)C(C(=O)NC1CCCC1)c1ccc(F)cc1 (centres unmarked) | -0.514%
43 | CCOC(=O)c1c2n(c3c(NCc4ccccc4)ncnc13)CCCC2 | -76.3%
44 | COc1ccc(CN2CCN(C(=O)c3cccc(OC)c3OC)CC2)cc1OC.O=C(O)C(=O)O | 5.63%
